Our source for the GI50 and TGI values is PubChem BioAssay (NCI).

Values joined by “and” are separate entries in the source; they are usually repeats but may differ in a detail not shown here. Identical values can stand only once.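 Method: 48-hour compound exposure of cells in 96-well plates, five concentrations, linear interpolation of endpoints. At the GI50, growth is halved. The concentration for full growth arrest is given as TGI.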

In the test the test system is NCI-H322M lung. In words: DTP human tumour cell line panel, 48 h.
Take `COC(=O)CC12CC(NC(=O)c3csc([C@@H](C[C@H](C(C)C)N(C)C(=O)[C@@H](NC(=O)[C@H]4CCCCN4C)C(C)C)OC(C)=O)n3)(C1)C2`: the GI50 is 4.07 nM and 15.3 nM; the TGI was above 33.3 µM.

Regarding `CC1NC(=O)c2c(-c3ccccc3)nn(-c3ccccc3)c2NC1=O` (stereo not given), the total growth inhibition concentration (TGI) was above 100 µM.

In the case of `Cc1cc2c(cc1C)[n+](=O)c(C(=O)CC(=O)C(=O)Nc1ccccc1C)c(C)n2[O-]`, the TGI is above 100 µM.

`Cc1ccc2[nH]c3c(C)c4cc[n+](C)cc4c(C)c3c2c1` yielded a TGI of 10.4 µM.

As to `OC1CCC(COC(c2ccccc2)(c2ccccc2)c2ccccc2)O1` (stereo not given), the TGI was determined as 31.5 µM.

On to `CCOC(=O)c1csc(NC(=O)CCN2CCOCC2)n1`, for which the concentration for total growth inhibition (TGI) is above 100 µM.

The compound `COc1ccc(-c2c(C(C)=O)c(C)n(C3OC(COC(C)=O)C(OC(C)=O)C(OC(C)=O)C3OC(C)=O)c(=S)c2C#N)cc1` (stereo not given) yielded a concentration for total growth inhibition (TGI) above 100 µM.

Take `CN(CCNc1ccc(C(=N)N)cc1)c1ccc(C(=N)N)cc1`: the GI50 was above 100000 nM and the TGI is above 100 µM.

As for `CCOC(=O)C(=O)N=Nc1c(O)[nH]c2ccccc12`, the TGI is above 100 µM.

In turn, `Cc1cc(C)c(S(=O)(=O)N(CCCCCCN)OCCCON(CCCCCCN)S(=O)(=O)c2c(C)cc(C)cc2C)c(C)c1` returned a total growth inhibition concentration (TGI) of 3.03 µM.

As for `CC1(C)OP(=O)(c2ccccc2)C=C1Br` (stereo not given), the concentration for total growth inhibition (TGI) was above 100 µM.

Consider `COc1ncnn2ccc(-c3cnc4nc(C)n(Cc5nnc(C(C)F)o5)c4c3)c12` (stereo not given), for which the 50% growth inhibitory concentration (GI50) was 408 nM and the TGI is above 93.1 µM.

`O=C(OC1C#CCSCC#C/C=C\1)c1cnc2ccccc2n1` (stereo not given) yielded a TGI above 100 µM.

With `CCOC(=O)c1sc(Nc2cc(Cl)ccc2Cl)nc1C`, the total growth inhibition concentration (TGI) is above 100 µM.

Take `Cc1cc(C)c2c(=O)cc(-c3ccc(F)cc3)[nH]c2n1`: the TGI was above 100 µM.

In the case of `COc1ccc2c(c1)OC(N)=C(C#N)C2c1ccc(F)c(F)c1` (stereo not given), the GI50 was 1890 nM and the TGI was above 100 µM.

`Brc1ccc2[nH]cc([C@@H]3CN[C@@H](c4c[nH]c5ccc(Br)cc45)CN3)c2c1`: the TGI came out at 17.3 µM.

Consider `CC(=O)NS(=O)(=O)c1ccc(-n2nc(-c3ccccc3)cc2-c2cc(O)ccc2O)cc1`, for which the GI50 was above 100000 nM and the TGI is above 100 µM.

In turn, `CC[C@@]1(O)C(=O)OCc2c1cc1n(c2=O)Cc2cc3c(OC)cccc3nc2-1` registered a concentration for total growth inhibition (TGI) above 30.3 µM.

The compound `CC1(C)CCCCC1/C=C/C(CC(O)(C(F)(F)F)C(F)(F)F)=N\Nc1ccc([N+](=O)[O-])cc1[N+](=O)[O-]` (stereo not given) yielded a concentration for total growth inhibition (TGI) of 0.735 µM.

In the case of `N[C@@H]1c2c(Br)sc(Br)c2C(=O)[C@H]1Br`, the TGI is above 100 µM.

Consider `N#Cc1nc(N)c(C#N)[nH]1`, for which the total growth inhibition concentration (TGI) was above 100 µM.

Compound `COc1ccccc1NC(=S)NNC(=O)c1cc(-c2ccccc2)nc2ccccc12` had a TGI of 55.4 µM.

In turn, `OCC(O)COc1ccc(F)cc1` (stereo not given) returned a TGI above 100 µM.

In the case of `CN1CCN(Cn2nc(-c3ccccc3)n(/N=C/c3ccc(-c4ccc(Cl)cc4Cl)o3)c2=S)CC1`, the TGI was 99.2 µM.

In the case of `CCOC(=O)C(=NN(C)c1ncccc1N)C(=O)OCC`, the TGI was above 100 µM.

With `Cc1ccc(NC(=O)CC2SC(=Nc3cccc(Cl)c3C)NC2=O)cc1` (stereo not given), the total growth inhibition concentration (TGI) was above 100 µM.

`COc1cc(/C=C2\N=C(c3ccccc3)N(c3ccc4c(c3)Sc3cc(N5C(=O)/C(=C/c6cc(OC)c(OC)c(OC)c6)N=C5c5ccccc5)ccc3N4)C2=O)cc(OC)c1OC` registered a TGI of 37.6 µM.

In turn, `CC(C)C1=CC23CCC4C(C)(C(=O)O)CCCC4(C)C2CC1C1C(=O)N(c2ccc(N4C(=O)C5C6CC7C8(C)CCCC(C)(C(=O)O)C8CCC7(C=C6C(C)C)C5C4=O)cc2)C(=O)C13` (stereo not given) registered a total growth inhibition concentration (TGI) of 16.9 µM.

The compound `O=C(O)COc1ccc2c3c1C(=O)CCC3CO2` (stereo not given) showed a TGI above 100 µM.

In general, GI50 refers to the concentration that inhibits growth by half. By TGI is commonly meant the concentration at which net growth stops. High values mean less potent growth arrest, low ones more potent growth arrest.
